# From PubChem BioAssay AID1460 (National Center for Advancing Translational Sciences (NCATS), 2008)
# Out of some 270,000 compounds screened, about 5,800 (2.1%) were called active. Another 16% or so got no clear call; they are omitted. The call rests on the fitted dose curve; in most records, active means well fitted inhibition curve with a large enough effect; inconclusive means small, poorly fitted or top-dose-only effect; inactive means flat fitted curve, though single readings scatter. Only a part is listed here, and it is no random draw.
# Molecular target: Microtubule-associated protein tau (Homo sapiens) (UniProt P10636)
# Test: qHTS for Inhibitors of Tau Fibril Formation, Thioflavin T Binding; further: nearly all actives have a fitted effect of over 55% in size
# Conditions: recombinant tau K18 P301L (four-repeat tau fragment), heparin-induced fibrillization, ThT fluorescence; series mostly up to 57.4 µM; activity, negative = inhibition: at the top concentration
# How it was run: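 In this qHTS, human K18 P301L tau is incubated with compound and heparin for 6 hr at 37 C, and Thioflavin T fluorescence then reports fibril load.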
# On the % scale 0 is the no-effect control and ±100 the full control effect; potency means the concentration at half of the fitted maximal effect.
# Sequence of UniProt P10636 (P10636 whole entry, looked up): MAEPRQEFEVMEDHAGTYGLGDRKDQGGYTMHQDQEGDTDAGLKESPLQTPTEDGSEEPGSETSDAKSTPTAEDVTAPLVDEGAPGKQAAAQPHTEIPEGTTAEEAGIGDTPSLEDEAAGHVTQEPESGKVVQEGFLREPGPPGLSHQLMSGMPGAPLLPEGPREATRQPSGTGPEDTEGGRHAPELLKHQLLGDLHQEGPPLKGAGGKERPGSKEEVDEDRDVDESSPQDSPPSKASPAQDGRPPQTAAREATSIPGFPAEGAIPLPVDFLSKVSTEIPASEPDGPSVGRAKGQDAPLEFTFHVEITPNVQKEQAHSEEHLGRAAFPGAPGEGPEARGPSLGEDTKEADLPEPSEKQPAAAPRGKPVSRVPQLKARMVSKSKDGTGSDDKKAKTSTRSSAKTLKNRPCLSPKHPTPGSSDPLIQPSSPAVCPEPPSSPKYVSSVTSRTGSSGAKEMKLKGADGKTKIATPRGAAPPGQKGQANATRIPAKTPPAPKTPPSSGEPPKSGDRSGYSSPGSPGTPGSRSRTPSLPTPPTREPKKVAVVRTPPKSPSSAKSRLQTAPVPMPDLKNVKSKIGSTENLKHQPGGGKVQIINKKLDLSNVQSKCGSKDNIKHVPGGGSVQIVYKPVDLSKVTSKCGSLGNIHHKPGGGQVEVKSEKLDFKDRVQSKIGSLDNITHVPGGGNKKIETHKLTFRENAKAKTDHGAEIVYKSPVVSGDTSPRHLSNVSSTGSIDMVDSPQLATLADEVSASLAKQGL
SMILES,"activity, negative = inhibition",Potency
Nc1ccc2c3c(cccc13)C(=O)NC2=O,inactive: -2.84%,
O=C(NCc1nc2ccccc2[nH]1)C1=C[C@@H](c2ccc3c(c2)OCO3)C[C@@H](OCc2ccc(CO)cc2)O1,inactive: -0.477%,
COC(=O)CCCC1=CC2=CC(=O)C(C)(OC(=O)c3cccs3)C(=O)C2=CN1CC(C)C (stereo unspecified),inactive: -12.7% [at 11.5 µM],
[2H]c1c([2H])c([2H])c(-c2nc(N3CCCCCC3)sc2C(=O)c2ccccc2)c([2H])c1[2H],inactive: -19.9%,
CCCN1C(=O)C(Cc2nc3ccccc3c(=O)n2-c2ccccc2)c2cc(C)ccc21 (stereo unspecified),inactive: -18%,
O=C(CSc1nc2ccc(S(=O)(=O)N3CCOCC3)cc2[nH]1)N1CCOCC1,,active: 28.2 µM
Cc1noc(NS(=O)(=O)c2ccc(N/C=C\C(=O)c3ccc(F)cc3)cc2)c1C,inactive: 8.65%,
COc1cc(C2CC(=O)Oc3c2c(=O)n(C)c2ccccc32)ccc1O (stereo unspecified),inactive: -14.3%,
COc1ccc(C[C@H]2CN3C(=NC[C@@H]3Cc3ccccc3)N2CCNC(=O)CCC2CCCCC2)cc1,inactive: -17.5%,
O=C(N/N=C/c1cccc([N+](=O)[O-])c1O)c1cccs1,,active: 5.01 µM
O=C(O)CCn1cc(/C=C/C(=O)c2ccc(Cl)cc2)c(-c2cccc(Br)c2)n1,inactive: -5.32%,
CCCC1=C/C(=C/c2ccc(-c3ccccc3OC)o2)C(=O)O1,,active: 12.6 µM
CCCCC1=CC2=CC(=O)C(C)(OC(=O)C3CCCC3)C(=O)C2=CO1 (stereo unspecified),inactive: -6.52%,
CC(NC(=O)/C(=C/c1cccc([N+](=O)[O-])c1)NC(=O)c1ccco1)C(=O)O (stereo unspecified),inactive: 2.33%,
CCCCC(C=O)NC(=O)C(CC(C)C)NC(=O)OCc1ccccc1 (stereo unspecified),inactive: -6.11%,
CCCOc1ccccc1-c1nc2n[nH]nc2c(=O)[nH]1,,inactive
S=C(Nc1ccccc1)c1ccccn1,inactive: -8.8%,
COc1ccc(CCCc2nnc(SCC(=O)Nc3cc(C)ccc3C)o2)cc1,inactive: -20.5%,
CC1=C(C(=O)O)N2C(=O)[C@@H](NC(=O)C(N)c3ccccc3)[C@H]2SC1 (stereo partly specified),inactive: -10.4%,
CCCCCCCCCCCCC/C=C/[C@@H](O)[C@@H](N)CO,,inactive
Cc1cc(N)c2ccccc2[n+]1CCCCCCCCCC[n+]1c(C)cc(N)c2ccccc21,inactive: -19.4%,
Cn1c(=O)c(=O)n(C)c2cc(S(=O)(=O)N3CCN(c4ccc(F)cc4)CC3)ccc21,inactive: -5.14%,
COC(=O)[C@@H](NC(=O)O[C@@H]1C(=O)c2cc(Br)ccc2O[C@H]1c1cccc(OC)c1)C(C)C,inactive: -13.4%,

SMILES,"activity, negative = inhibition",Potency
CC(C)NC(=O)/C(C#N)=C\c1ccc(N(C)C)o1,inactive: -11.8%,
COC(=O)CCC(=O)OC1(C)C(=O)C2=COC(c3ccc(OC)cc3)=CC2=C(Br)C1=O (stereo unspecified),,active: 12.6 µM
CC1(C)CC(=O)C([C@H]2C3=C(CC(C)(C)CC3=O)Oc3ccccc32)C(=O)C1,inactive: -10.1%,
COC(=O)[C@H](Cc1ccccc1)NC(=O)O[C@@H]1C(=O)c2cc(OC)ccc2O[C@H]1c1ccc(OC)c(Br)c1,inactive: -10.8%,
CC1(OC(=O)C2CCCC2)C(=O)C=C2C=C3CCCCN3C=C2C1=O (stereo unspecified),inactive: -5.24% [at 11.5 µM],
CCCC(=O)OC1CC(C)N(C(=O)c2ccccc2)c2ccc(C)cc21 (stereo unspecified),inactive: -1.78%,
C[C@@]12CCC3c4ccc(O)cc4CCC3C1CCC2O (stereo partly specified),inactive: -16.9%,
CCC1=C(OC(=O)N(CC)CC)N2C(=O)OC(=NCCc3c[nH]c4ccccc34)[C@]2(C)[C@H]2C1=CC[C@H]1C(=O)N(C)C(=O)[C@H]12,inactive: -4.19%,
COc1ccc(-c2csc(Nc3ccc(O)cc3)n2)cc1,,active: 7.94 µM
Nc1ccc(O)c2c(=O)cc(-c3ccccc3Cl)oc12,inactive: -17.9%,
CCc1cccc(NC(=O)CCNS(=O)(=O)c2cccc3nonc23)c1,inactive: -4.08%,
COc1cc(N=Nc2ccccc2C(=O)O)ccc1O,,active: 7.08 µM
O=C(Cn1cc(SCc2cccc(Cl)c2)c2ccccc21)N1CCOCC1,inactive: 6.28%,
COc1cc(O)c(NC(C)=O)c2nonc12,,active: 7.94 µM
C=CCN1C=C2C(=O)C(C)(OC(=O)c3ccc(OC)cc3)C(=O)C(c3ccco3)=C2C=C1CCCC (stereo unspecified),inactive: -0.609% [at 11.5 µM],
COC(=O)c1ccc2c(c1)C(C)(C)C(/C=C/c1ccc(O)cc1)=[N+]2C,,active: 12.6 µM
Cc1ccc(C(C[N+](=O)[O-])c2c(-c3ccccc3O)[nH][nH]c2=O)cc1 (stereo unspecified),,active: 17.8 µM
Cc1ccc(-c2cc(N)n(-c3ccc(C)cc3)n2)cc1,inactive: -12%,
CCCCCCN(C(=O)CCCCCN1C(=O)NC(c2ccc(-c3ccccc3)cc2)C(C(=O)OCc2ccccc2)=C1C)C(C(=O)NCCCC)c1ccccn1 (stereo unspecified),inactive: -16%,
COCCN=C1OC(=O)N2C(=O)C3=C4[C@@H](C[C@H]5C(=O)N(c6ccccc6)C(=O)[C@H]5[C@H]4[C@@]12Cc1ccccc1)[C@H]1C(=O)N(c2ccccc2)C(=O)[C@H]1[C@H]3C,inactive: -6.93%,
COc1cc(CNc2ccc3[nH]c(=O)[nH]c3c2)cc(Cl)c1OCC(=O)NC(C)(C)C,,active: 11.2 µM
Cc1ccc(S(=O)(=O)NC(=O)NN2CCCCCC2)cc1,,inactive
CC(C)c1ccc2c(c1)CC[C@@H]1[C@@](C)(CN)CCC[C@]21C,inactive: -4.78%,

SMILES,"activity, negative = inhibition",Potency
Fc1ccc(N=C2NN=C(c3cc(F)ccc3F)CS2)cc1,,active: 12.6 µM
CC[N+](CC)(CC)CC(=O)Nc1c(C)cccc1C,,inactive
COc1ccc(C(=O)c2coc3c2C(=O)C(=O)c2ccccc2-3)cc1,,active: 2.82 µM
O=c1[nH]c(=O)n([C@H]2C[C@H](O)[C@@H](CO)O2)cc1Br,inactive: -4.78%,
Cc1cc(Br)cc2c1N(Cc1ccccc1OC(C)C)C(=O)C2=O,,active: 25.1 µM
Cc1ccccc1NC(=O)/C(C#N)=C\c1ccsc1,inactive: -15.5%,
OC(CN1CCN(c2cccc(Cl)c2)CC1)C(c1ccccc1)c1ccccc1 (stereo unspecified),,inactive
CC1=NN(C(N)=S)C(=O)C1N=Nc1ccc(O)cc1 (stereo unspecified),,active: 12.6 µM
COc1ccc(N2CCN(C(=O)c3ccc4c(=O)n(CCc5ccc(OC)c(OC)c5)c(=O)[nH]c4c3)CC2)cc1,inactive: -10.8%,
COc1ccccc1CNC(=O)CSc1cc(=O)n(C)c2ccccc12,inactive: -0.873%,
Cc1ccc(C(=O)N/C(=C/C=C\c2ccccc2)C(=O)NCc2ccco2)cc1,inactive: 1.97%,
COC(=O)c1ccc(C23CC4(C2)[C@H](CN(Cc2ccc(C(F)(F)F)cc2)[C@@H]4c2ccccc2)C3c2ccc(C(F)(F)F)cc2)cc1 (stereo partly specified),inactive: 3.12%,
CC(/C=C/C(=O)NO)=C\[C@@H](C)C(=O)c1ccc(N(C)C)cc1,inactive: -19.8%,
Cc1ccccc1C(=O)N1CCN(c2ccc(NC(=O)c3ccc4c(c3)OCO4)cc2)CC1,,active: 12.6 µM
NS(=O)(=O)c1ccc(Nc2nc3ccccc3nc2NS(=O)(=O)c2cccc([N+](=O)[O-])c2)cc1,,active: 11.2 µM
O=C(NCCc1ccccc1)c1ccc2nc(-c3ccco3)c(-c3ccco3)nc2c1,,active: 7.08 µM
CC(=O)c1cc2c(cc1N/C(=N/S(=O)(=O)c1ccc(C)cc1)c1ccc(Cl)cc1)OCO2,inactive: 19.7%,
COC(=O)CN1C(=O)C2(C(C#N)=C(N)Oc3c2c(C)nn3-c2ccccc2)c2ccccc21 (stereo unspecified),,active: 28.2 µM
CC1(C)CC(=O)C2=C(C1)N(c1cccnc1)C(N)=C(C#N)C2c1cccs1 (stereo unspecified),,active: 20 µM
O=c1[nH][nH]c(-c2ccccc2O)c1C(C[N+](=O)[O-])c1cccc(Cl)c1 (stereo unspecified),,active: 25.1 µM
CC1(C)C=Cc2cc3ccc(=O)oc3cc2O1,inactive: -12.9%,
O=C1CC(c2ccc(O)c(O)c2)Oc2c1ccc(O)c2O (stereo unspecified),,active: 15.8 µM
CN(C)CCCN1c2ccccc2Sc2ccc(Cl)cc21,inactive: -18.4%,

SMILES,"activity, negative = inhibition",Potency
Cc1nn(-c2ccccc2)c(N2CCCC2)c1/C=N/Nc1ccc(S(N)(=O)=O)cc1[N+](=O)[O-],,active: 5.01 µM
Cc1cccc(C)c1OCC(=O)Nc1ncn[nH]1,inactive: -0.0429%,
O=C(O)c1ccccc1Nc1ccccc1,inactive: -10.5%,
Cc1sc(N2C(=O)C3C(C2=O)[C@H]2C=C[C@@H]3C2)c(C#N)c1C (stereo partly specified),inactive: -16.8%,
O=C(Nc1ccc(F)cc1)N1CCN(c2ccc3nnc(-c4ccc(F)cc4)n3n2)CC1,inactive: -25.4%,
CCCCCCCCCCCCCCCC(=O)OC(CC(=O)O)C[N+](C)(C)C (stereo unspecified),inactive: -19.6%,
O=C(/C=C/c1ccco1)Oc1cccc2cccnc12,inactive: -19.2%,
COCOc1ccc(OC)cc1C(=O)/C=C/c1ccc(OC)c(Br)c1,inactive: -6.82%,
CC1(C)C(=O)NC2=C1C(=O)C(=O)c1ccccc12,,active: 17.8 µM
CCCC(=O)Oc1c(Sc2ccc(C)cc2)c(C)nn1-c1ccccc1,,active: 25.1 µM
CN1C(=O)CS/C1=N\NC(=O)COc1cccc2cccnc12,,active: 10 µM
Oc1ccccc1CNc1cccc2cccnc12,,active: 6.31 µM
N#C/C(=C/c1ccco1)c1nc2ccccc2s1,inactive: 8.87%,
Cc1cc(Cl)cc2c1NC(=O)[C@]21[C@@H]2C(=O)N(Cc3ccccc3)C(=O)[C@@H]2[C@@H]2CCCN21,inactive: -16.5%,
O=C(NCc1ccccc1)[C@@H]1C[C@H]1[C@@H](NP(=O)(c1ccccc1)c1ccccc1)c1ccccc1,,inactive
CCC1=C(OC(=O)N(CC)CC)N2C(=O)OC(=NCCc3c[nH]c4ccccc34)[C@]2(Cc2ccccc2)[C@H]2C1=CC[C@H]1C(=O)N(CC)C(=O)[C@H]12,inactive: -0.742%,
S=C(Nc1ccc2cn[nH]c2c1)Nc1ccccc1Cl,,active: 14.1 µM
COc1ccc(/C=C/C2=C[C@]3(C)C[C@]2(C)[C@H](c2ccc(OC)cc2)CC3=O)cc1,inactive: 5.08%,
CCOC(=O)c1cc(OC(=O)c2ccccc2OC)n(-c2ccccc2)n1,inactive: -13.1%,
NC1=NC[C@@H](Cc2ccc(O)cc2)N1CCc1cccc(F)c1,inactive: -6.21%,
COc1ccccc1/C=C/C=N/n1c(C2CCCCC2)n[nH]c1=S,inactive: -12.4%,
Cc1ccc(OCCNc2cc(N3CCN(CCO)CC3)ccc2[N+](=O)[O-])cc1C,,active: 15.8 µM
